From PubChem BioAssay AID1508624 (National Center for Advancing Translational Sciences (NCATS), 2021)
The campaign covered roughly 48,000 compounds. About 120 (0.25%) were called active. Another 4% or so got no clear call; they are omitted. Calls come from the whole dose curve; as a rule, active = well fitted activation curve with a large enough effect; inconclusive = small, poorly fitted or top-dose-only effect, or another doubt; inactive = no such curve, though single readings can be large or run the other way. Some of the results follow.

assay: Primary qHTS for Identification of Small Molecule Activators of Huntingtin-Antisense Promoter Activity; conditions: HEK293 HTT-AS promoter firefly luciferase reporter, 24 h; series mostly up to 57.5 µM; activity change, positive = activation: at the top concentration; note: nearly all actives have a fitted effect of over 55% in size
Excerpt: Assay Provider: Russell L. Margolis M.D.
Department Neurology, Johns Hopkins University School of Medicine, Baltimore, MD
Huntington's Disease (HD) is a neurodegenerative disorder caused by a CAG repeat expansion in exon 1 of huntingtin (HTT). While there are currently no disease-modifying treatments for HD, recent efforts have focused on development of nucleotide-based therapeutics to lower HTT expression. As an alternative to siRNA or oligonucleotide methods, we hypothesized that suppression of HTT expression might be accomplished by small molecules that either (1) directly decrease HTT expression by suppressing HTT promoter activity or (2) indirectly decrease HTT expression by increasing the promoter activity of HTT-AS, the gene antisense to HTT that appears to inhibit expression of HTT.
We developed and employed a high throughput screen for modifiers of HTT and HTT-AS promoter activity using luminescent reporter HEK293 cells; of the 52,041 compounds tested, we identified 898 replicable hits. We used a rigorous stepwise approach to assess compound toxicity and the capacity of the compounds to specifically lower huntingtin protein in 5 different cell lines, including HEK293 cells, HD lymphoblastoid cells, mouse primary neurons, HD iPSCs differentiated into cortical-like neurons, and HD hESCs. We found no compounds which were able to lower huntingtin without lowering cell viability in all assays, though the potential efficacy of a few compounds at non-toxic doses could not be excluded.
SEQUENCE No. (1, 2, 3, etc.); […] (e.g., Cells, Incubation, Reagent, etc.); VALUE and DESCRIPTION.
1; Reagent; 4 uL; 2,500 Hek293 luciferase reporter cells per wells
3; Compound; 23 nL; Control inhibitor / compound library
5; Reagent; 2.5 uL; Firefly Luc reagent; Dual-Glo Luciferase Reporter Assay System (Promega)
6; Time; 10 min; room temperature incubation
7; Detection; Luminescence; FLuc
NOTES (numbers refer to sequence above)
1; High-throughput screening, measuring luminescence from a Hek293 luciferase reporter, was performed in 1,536 well white-walled tissue-culture treated plates. 2,500 cells were plated in 4 µL of Opti-MEM per well using a Multidrop Combi Reagent Dispenser (ThermoFisher).
2; Assay plates were cultured for 24 hours.
3; Control inhibitor (PTC124; final concentration of 50 uM) and compound library (at final concentrations of 460 nM - 57.5 uM) were added to the assay plate using the Kalypsis Pintool Robotic System equipped with 1536 pinheads.
4; Cells were then incubated for 24 hours at 37 degrees C prior to luminescence measurements.
5; In all cases, luminescence was measured using the Dual-Glo Luciferase Reporter Assay System (Promega) following the manufacturer's instructions.
6; Room temperature incubation.
7; Luminescence signal was obtained using the PerkinElmer ViewLux plate reader. Results were normalized to vehicle control (0% activity) and zero RLU (-100% activity).

| Structure (SMILES) | activity change, positive = activation |
| --- | --- |
| Cc1c(C)n(C)c2ccc(C(=O)NCCc3ccc(Cl)cc3)cc12 | inactive: 1.97% |
| Cc1ccc(NC(=O)C2CCCN(S(=O)(=O)c3c(C)n[nH]c3C)C2)cc1Cl (stereo not given) | inactive: -44.5% |
| Cc1nn(-c2ccc(F)cc2)c(-n2cccc2)c1C(=O)N1CCN(c2ccccc2F)CC1 | inactive: -6.88% |
| Cc1c(C(=O)Nc2ccc(F)c(F)c2)oc2ccc(S(=O)(=O)N3CCC4(CC3)OCCO4)cc12 | inactive: -41.5% |
| O=C(Nc1c(-c2ccc(F)cc2)nc2ccccn12)c1cccc(F)c1 | inactive: -9.28% |
| CC(=O)Nc1ccc(NS(=O)(=O)c2ccc(Cl)s2)cc1 | inactive: -19.1% |
| COc1ccccc1CNC(=O)CN(c1ccc(C)cc1)S(=O)(=O)c1c(C)noc1C | inactive: -21.2% |
| NC(=O)N1CCC(CC(=O)N2CCC([C@H]3c4ncc(Br)cc4CCc4cc(Cl)cc(Br)c43)CC2)CC1 | inactive: -38% |
| CCOc1ccc(C(=O)c2cn(Cc3ccccc3)c3c(F)cc(F)cc3c2=O)cc1 | inactive: -31% |
| CCCCc1ccc(NS(=O)(=O)c2ccc(N3CCCCS3(=O)=O)cc2)cc1 | inactive: 16% |
| COc1ccc(OC)c(NC(=O)c2cnc(N3CCCC3)nc2C)c1 | inactive: 0.416% |
| CCSc1ncc(Cl)c(C(=O)N(Cc2ccccc2)Cc2ccco2)n1 | inactive: -41.9% |
| CCCOc1ccc(NC(=O)CC2C(=O)N(c3ccc(C)cc3)C(=O)N2C2CCCC2)cc1 (stereo not given) | inactive: 6.86% |
| O=C(Nc1ccc(Cl)cc1)c1cc2nc(-c3ccc4c(c3)OCO4)cc(C(F)(F)F)n2n1 | inactive: 5.85% [at 11.5 µM, percent change from vehicle, -100% = no light] |
| CCn1c(=O)n(-c2cccc(Cl)c2)c(=O)c2sc3ccccc3c21 | inactive: -4.87% |
| CCc1nn(CC(=O)N2CCN(c3ccc(Cl)cc3)CC2)c(=O)c2cc3occc3n12 | inactive: -9.42% |
| COc1ccc(C(=O)Nc2ccccc2-c2nc(-c3ccc(OC)cc3)no2)cc1 | inactive: 2.73% |
| O=C(c1cnc(N2CCCCC2)c2ccccc12)N1CCN(c2ccc(Cl)cc2)CC1 | inactive: -36.6% |
| COc1ccc(OC)c(/C=C(\C#N)c2nc3ccccc3c(=O)[nH]2)c1 | inactive: -3.42% |
| O=C(CCC(=O)c1ccccc1)Nc1ccc(F)c(Cl)c1 | inactive: -6.6% |
| COc1ccc(CCN2CC(C(=O)NCCc3ccccc3)CC2=O)cc1OC (stereo not given) | inactive: 3.54% |
| Cc1ccc(C)c(S(=O)(=O)NCCc2csc(-c3ccc(Cl)cc3)n2)c1 | inactive: -35.9% |
| O=S(=O)(NCCS(=O)(=O)N1CCN(c2ccccc2)CC1)c1ccc(Cl)cc1 | inactive: -3.11% |

| Structure (SMILES) | activity change, positive = activation |
| --- | --- |
| Cc1cccc(NC(=O)C2CCCN(S(=O)(=O)c3ccc4c(c3)oc(=O)n4C)C2)c1 (stereo not given) | inactive: -31.3% |
| Cc1sc2c(c1C)c(=O)n(CCc1ccccc1)c(=O)n2Cc1ccc(F)cc1 | inactive: 0.487% |
| CCOC(=O)c1ccc2c(c1)[C@@H]1C=CC[C@@H]1[C@H](c1cccc(OC)c1OC)N2 | inactive: 10.7% |
| CCCC(=O)C1=C(c2cccc(OC)c2)N(C(=O)CCC)n2c(C)nnc2S1 | inactive: 16.1% |
| Cc1cc(C)c2sc(N(Cc3cccnc3)C(=O)CCOc3ccccc3)nc2c1 | inactive: -24.3% |
| Cc1ccc(-n2nc3ccc(NC(=O)Cc4ccc(Cl)cc4)cc3n2)cc1 | inactive: -10.3% |
| CCOC(=O)c1c(NC(=O)C(C)Sc2cn(CCNC(=O)c3ccccc3OC)c3ccccc23)sc2c1CCC2 (stereo not given) | inactive: -37.7% |
| COC(=O)c1sc2cccc(F)c2c1S(=O)(=O)NCc1ccc(Cl)cc1 | inactive: -6.85% |
| CCOC(=O)COc1ccc(CC)cc1C(=O)c1ccn2nc(-c3ccc(Cl)cc3)cc2n1 | inactive: -10.7% |
| COc1cccc(CNC(=O)CSC2=Nc3ccccc3C3=NC(C)C(=O)N23)c1OC (stereo not given) | inactive: 6.61% |
| CCOc1ccc(NC(=O)Cn2c(=O)n(CCCC(=O)NCc3ccc4c(c3)OCO4)c(=O)c3ccccc32)cc1 | inactive: -12.2% |
| Cc1ccc(CSc2ncc(Cl)c(C(=O)Oc3ccc(F)cc3)n2)cc1 | inactive: 16.4% |
| COc1ccccc1N1CCN(CCCNC(=O)c2cnn(-c3ccc(C)c(C)c3)c2C2CCN(C(=O)OC(C)(C)C)CC2)CC1 | inactive: -33.1% |
| CCCCS(=O)(=O)c1oc(-c2ccc(F)cc2)nc1S(=O)(=O)c1ccccc1 | inactive: -94.1% |
| Fc1ccc(-c2cc(C(F)(F)F)nc(NCc3ccccc3)n2)cc1 | inactive: -18.2% |
| O=C(c1ccc2c(c1)N(Cc1ccc(F)cc1)C(=O)c1ccccc1S2(=O)=O)N1CCN(c2ccccn2)CC1 | inactive: -36.4% |
| COc1ccccc1CNC(=O)c1cnc2c(-c3ccccc3)c(C)nn2c1C | inactive: 4.77% |
| CCCCCC(=O)N(c1ccc(OCC)cc1)S(=O)(=O)c1ccc2c(c1)n(C)c(=O)n2C | inactive: -12.6% |
| Cc1ccc(CCNC(=O)c2ccc(CS(=O)(=O)Cc3cccc(C)c3)o2)cc1 | inactive: -16.4% |
| COc1ccc(Cn2ccc3nc(C)c(C(=O)N4CCN(c5ccccc5F)CC4)cc3c2=O)cc1 | inactive: -27.2% |
| Cc1ccc(NC(=O)Cn2cc3c(n2)CCC(C)C3)cc1C (stereo not given) | inactive: -12.3% |
| O=C(Nc1cc(C(F)(F)F)cc(C(F)(F)F)c1)c1cc(Cl)ccc1O | inactive: -91.2% |
